According to the supplement of paper PMC12217912:
The other results are listed elsewhere or left out. Sequences were assembled here from the parent chain. Inactive controls read about 0.05.

B1: TEV protease; numbered along this chain (parent)
chain: MGESLFKGPRDYNPISSSICHLTNESDGHTTSLYGIGFGPFIITNKHLFRRNNGTLVVQSLHGVFKVKDTTTLQQHLVDGRDMIIIRMPKDFPPFPQKLKFREPQREERICLVTTNFQTKSMSSMVSDTSCTFPSGDGIFWKHWIQTKDGQCGSPLVSTRDGFIVGIHSASNFTNTNNYFTSVPKNFMELLTNQEAQQWVSGWRLNADSVLWGGHKVFMVKPEEPFQPVKEATQL

Variants of: B1
Test: raw area under fraction-flipped curve 0-4 h after induction (AUC4h, not background-subtracted), DNA-recorder readout of cleavage of the substrate (dimensionless); higher = more cleavage of the substrate by the protease variant
Conditions: temperature: 34 °C; time window: 0-4 h after rhamnose induction
Experimental: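 In vivo DNA recorder in E. coli TOP10(DE3) ΔrhaA at 34 °C. Each TEVp single-site mutant (parent TEVp 0) is paired with a single-site variant of the 7-mer TEVs (canonical ENLYFQ|S). The substrate sits between flexible linkers in a Bxb1-sfGFP-TEVs-SsrA fusion, so cleavage stabilises Bxb1 and speeds flipping of a recombination array, read by NGS. The value is the raw area under the fraction-flipped curve over 0-4 h after rhamnose induction (AUC4h), with ≥20 reads per time point. It is not background-subtracted; inactive controls average about 0.047.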
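Also: Bxb1 expression induced with 0.2% (w/v) L-rhamnose at OD600 near 0.5, cultures sampled hourly, flipped fraction per protease–substrate barcode pair counted by paired-end Illumina sequencing.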

Variant	area with substrate ENLYAQS	area with substrate ENLYGQS	area with substrate ENLYHQS	area with substrate ENLYIQS	area with substrate ENLYKQS	area with substrate ENLYMQS	area with substrate ENLYNQS	area with substrate ENLYPQS	area with substrate ENLYRQS	area with substrate ENLYSQS	area with substrate ENLYYQS	area with substrate ENLYCQS	area with substrate ENLYDQS	area with substrate ENLYEQS	area with substrate ENLYLQS	area with substrate ENLYQQS	area with substrate ENLYVQS	area with substrate ENLYWQS	area with substrate ENLYTQS
MGESLFKGPRDYNPISSSICHLTNESDGHTTSLYGIGFGPFIITNKHLFRRNNGTLVVQSLHGVFKVKDTTTLQQHLVDGRDMIIIRMPKDFPPFPQKLKFREPQREERICLVTTNFQTKSMSSMVSDTICTFPSGDGIFWKHWIQTKDGQCGSPLVSTRDGFIVGIHSASNFTNTNNYFTSVPKNFMELLTNQEAQQWVSGWRLNADSVLWGGHKVFMVKPEEPFQPVKEATQL [S130I]	0.0518	0.0576	0.0828	0.143	0.0519	0.0751	0.071	0.0729	0.0605	0.0684	0.0693	–	–	–	–	–	–	–	–
MGESLFKGPRDYNPISSSICHLTNESDGHTTSLYGIGFGPFIITNKHLFRRNNGTLVVQSLHGVFKVKDTTTLQQHLVDGRDMIIIRMPKDFPPFPQKLKFREPQREERICLVTTNFQTKSMSSMVSDTSCTFPSGDGIFWKHWIQTKDGQCGCPLVSTRDGFIVGIHSASNFTNTNNYFTSVPKNFMELLTNQEAQQWVSGWRLNADSVLWGGHKVFMVKPEEPFQPVKEATQL [S154C]	0.117	0.0704	0.0683	0.135	0.0455	0.0986	–	0.109	0.0643	0.0775	0.0647	0.0962	0.0751	0.0686	0.0581	0.0671	0.125	0.0769	–
MGESLFKGPRDYNPISSSICHLTNESDGHTTSLYGQGFGPFIITNKHLFRRNNGTLVVQSLHGVFKVKDTTTLQQHLVDGRDMIIIRMPKDFPPFPQKLKFREPQREERICLVTTNFQTKSMSSMVSDTSCTFPSGDGIFWKHWIQTKDGQCGSPLVSTRDGFIVGIHSASNFTNTNNYFTSVPKNFMELLTNQEAQQWVSGWRLNADSVLWGGHKVFMVKPEEPFQPVKEATQL [I36Q]	0.0333	0.0505	0.0808	0.0697	0.0424	0.0565	0.0523	–	0.0508	0.0554	–	0.0542	0.0434	0.0535	–	0.0686	0.0646	0.0393	–
MGESLFKGPRDYNPISSSICHLTNESDGHTTSLYGIGFGPFQITNKHLFRRNNGTLVVQSLHGVFKVKDTTTLQQHLVDGRDMIIIRMPKDFPPFPQKLKFREPQREERICLVTTNFQTKSMSSMVSDTSCTFPSGDGIFWKHWIQTKDGQCGSPLVSTRDGFIVGIHSASNFTNTNNYFTSVPKNFMELLTNQEAQQWVSGWRLNADSVLWGGHKVFMVKPEEPFQPVKEATQL [I42Q]	0.0337	0.0385	0.0506	0.0367	–	–	0.0477	–	0.0564	0.0391	–	–	0.016	–	–	0.0458	0.0507	–	–
MGESLFKGPRDYNPISSSICHLTNESDGHTTSLYGIGFGPFIITNKHLFRRNNGTLVVQSLHGVFKVKDTTTLQQHLVDGRDMIIIRMPKDFPPFPQKLKFREPQREERICLVTTNFQTKSMSSMVSDTSCTFPSGDGIFWKHWIQTKDGQCGSPLVSTRDGFIVGIHSASNFTNTNNYFTSVPKNFMELLTNQEAQQWVSGWRLNADSVLWGGHKVFMVKPEEDFQPVKEATQL [P225D]	0.0703	0.0656	0.0554	0.14	0.0618	–	0.0571	–	0.081	0.0917	–	–	0.0603	0.0611	–	0.0545	–	0.0711	0.0819
MGESLFKGPRDYNPISSSICHLTNESDGHTTSLYGIGFGPFIITNKHLFRRNNGTLVVQSLHGVFKVKDTTTLQQHLVDGRDMIIIRMPKDFPPFPQKLKFREPQREERICLVTTNFQTKSMSSMVSDTSCTFPSYDGIFWKHWIQTKDGQCGSPLVSTRDGFIVGIHSASNFTNTNNYFTSVPKNFMELLTNQEAQQWVSGWRLNADSVLWGGHKVFMVKPEEPFQPVKEATQL [G136Y]	0.0847	–	0.0504	–	0.061	–	–	0.0636	0.067	–	–	–	0.0484	0.0735	–	0.065	0.122	–	–
MGESLFKGPRDYNPISSSICHLTNESDGHTTSLYGIGFGPFIITNKHLFRRNNSTLVVQSLHGVFKVKDTTTLQQHLVDGRDMIIIRMPKDFPPFPQKLKFREPQREERICLVTTNFQTKSMSSMVSDTSCTFPSGDGIFWKHWIQTKDGQCGSPLVSTRDGFIVGIHSASNFTNTNNYFTSVPKNFMELLTNQEAQQWVSGWRLNADSVLWGGHKVFMVKPEEPFQPVKEATQL [G54S]	0.0828	–	0.0573	0.106	0.0495	0.0596	0.0593	0.0791	0.06	0.0757	0.0677	–	0.0568	0.0752	0.0515	–	0.0846	0.0534	0.0608
MGESLFKGPRDYNPISSSMCHLTNESDGHTTSLYGIGFGPFIITNKHLFRRNNGTLVVQSLHGVFKVKDTTTLQQHLVDGRDMIIIRMPKDFPPFPQKLKFREPQREERICLVTTNFQTKSMSSMVSDTSCTFPSGDGIFWKHWIQTKDGQCGSPLVSTRDGFIVGIHSASNFTNTNNYFTSVPKNFMELLTNQEAQQWVSGWRLNADSVLWGGHKVFMVKPEEPFQPVKEATQL [I19M]	0.0841	0.0723	0.0593	0.124	0.0778	0.0928	0.0583	0.078	0.0602	–	0.0663	0.0817	0.0664	0.0669	–	0.0422	0.118	0.0842	–
MGESLFKGPRDYNPISSSICHLTNESDGHTTSLYGIGFGPTIITNKHLFRRNNGTLVVQSLHGVFKVKDTTTLQQHLVDGRDMIIIRMPKDFPPFPQKLKFREPQREERICLVTTNFQTKSMSSMVSDTSCTFPSGDGIFWKHWIQTKDGQCGSPLVSTRDGFIVGIHSASNFTNTNNYFTSVPKNFMELLTNQEAQQWVSGWRLNADSVLWGGHKVFMVKPEEPFQPVKEATQL [F41T]	0.079	0.0617	0.0675	0.117	0.0349	0.0729	–	0.0546	0.0527	0.056	0.0458	0.088	0.0624	0.0654	0.0525	–	0.13	0.0651	–
